The values below come from publication PMC6919601, “Identification of Plasmodium dipeptidyl aminopeptidase allosteric inhibitors by high throughput screening” (PLoS ONE, 2019).

Several values for one entry are separate records, joined by “and”; a condition that tells them apart may be missing. Identical values can stand only once. The campaign covered roughly 110,000 compounds. About 230 (0.21%) showed an effect of 50% or more. This is one part of the list.
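Further: 30 min substrate incubation versus DMSO and 10 µM JCP410 controls.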

The target in this assay is DPAP1 (Plasmodium falciparum, UniProt Q8IIJ9). The experiment in a line: primary screen, percent inhibition; read by cleavage of a fluorogenic dipeptide substrate; higher = more effect of the substance. The arrangement: species or system P. falciparum D10 trophozoite lysates; single well.
Chain of DPAP1 (Q8IIJ9 whole entry, looked up): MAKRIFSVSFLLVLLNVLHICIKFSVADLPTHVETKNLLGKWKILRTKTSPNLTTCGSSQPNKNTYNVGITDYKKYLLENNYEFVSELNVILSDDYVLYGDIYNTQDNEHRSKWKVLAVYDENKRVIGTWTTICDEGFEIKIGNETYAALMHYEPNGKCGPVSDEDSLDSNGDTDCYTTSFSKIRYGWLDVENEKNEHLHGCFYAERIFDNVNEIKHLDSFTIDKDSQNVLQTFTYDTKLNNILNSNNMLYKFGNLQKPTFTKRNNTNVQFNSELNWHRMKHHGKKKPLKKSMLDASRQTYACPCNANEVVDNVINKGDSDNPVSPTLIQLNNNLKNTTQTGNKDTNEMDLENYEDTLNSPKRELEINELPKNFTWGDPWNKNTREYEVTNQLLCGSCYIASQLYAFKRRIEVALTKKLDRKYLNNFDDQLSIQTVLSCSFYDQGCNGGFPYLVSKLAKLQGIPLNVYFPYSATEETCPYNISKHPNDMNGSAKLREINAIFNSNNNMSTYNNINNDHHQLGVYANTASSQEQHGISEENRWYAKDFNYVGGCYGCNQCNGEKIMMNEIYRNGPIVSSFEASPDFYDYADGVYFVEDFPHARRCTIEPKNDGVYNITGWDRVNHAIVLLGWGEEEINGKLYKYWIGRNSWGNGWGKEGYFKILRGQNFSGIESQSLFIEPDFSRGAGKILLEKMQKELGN
With `COCCNC(=O)c1cc(-c2cccnc2)nc2ccc(S(=O)(=O)N3CCCCCC3)cc12`, the “% Inhibition @ 10 uM” value is given as 1.62%. Take `N#CCNC(=O)[C@@H](Cc1c(F)c(F)c(F)c(F)c1F)NC(=O)OCc1ccccc1`: the “% Inhibition @ 10 uM” value is on record as -3.14%. Under `C=CCN1C(=O)N/C(=C/c2ccc(-c3cccc(Cl)c3)o2)C1=O` stands 6.71%. In the case of `Cc1ccc(Nc2nc(N)nc(CN3CCCCCC3)n2)c(C)c1`, the “% Inhibition @ 10 uM” value is on record as -7.15%. The result for `CCOc1ccccc1NC(=O)CN(c1ccccc1F)S(C)(=O)=O` reads 4.63% and 3.72%. Regarding `COc1ccc(/C=C2\SC(N)=NC2=O)cc1O`, the “% Inhibition @ 10 uM” value is -3.33%. Under `O=S(=O)(c1cc(Cl)ccc1Cl)N1CCN(C/C=C/c2ccccc2)CC1` stands 6.06%. Consider `COc1ccc(CC2(C)OC(c3ccncc3)=NN2C(C)=O)cc1` (stereo not drawn), for which the “% Inhibition @ 10 uM” value is -6.92%. On to `Cn1c(=O)c2c(nc(S)n2CC2CC2)n(C)c1=O`, for which the “% Inhibition @ 10 uM” value is given as 1.81%. Regarding `CN1C(=O)/C(=C\c2cccc(F)c2)N=C1SCC(=O)Nc1ccc(Cl)cc1`, the “% Inhibition @ 10 uM” value worked out at 4.28%. As for `Cc1nc2cc(NC(=O)NC(C)(C)C)ccc2n1C`, the “% Inhibition @ 10 uM” value is -2.37%. Consider `Oc1nc2c(-c3c(F)cccc3Cl)nnn2c2ccccc12`, for which the “% Inhibition @ 10 uM” value is -3.13%. Under `CCOc1ccc(S(=O)(=O)n2cc(F)c(=O)[nH]c2=O)cc1` stands -7.7%; under `CC(C)(C#N)NC(=O)Nc1ccccc1`, 6.47%; under `COc1ccc(C(=O)COc2ccc(NC(=O)c3cccs3)cc2)cc1`, 2.64%.

`Nc1cnn(Cc2cccc3ccccc23)c1`: the “% Inhibition @ 10 uM” value is listed as -0.553%. On to `CCN(CC)C(=O)c1ccc(N/C=C2/C(=O)NC(=O)N(c3ccccc3)C2=O)cc1`, for which the “% Inhibition @ 10 uM” value is on record as -2.89%.

On to `CCCNC(=O)c1cc(-c2cc(OC)ccc2OC)nc2ccccc12`, for which the “% Inhibition @ 10 uM” value was found to be 7.37%. Take `CCN(CC)CCCCCOc1ccc(C)cc1`: the “% Inhibition @ 10 uM” value is -1.25%. `COC(=O)C1=CN(C2CC2)C=C(C(=O)OC)C1c1ccc(OC)c(OC)c1OC`: the “% Inhibition @ 10 uM” value is on record as -3.06%. Consider `O=C(CN1C(=O)S/C(=C/c2cccc(F)c2)C1=O)N1CCN(c2ccccc2)CC1`, for which the “% Inhibition @ 10 uM” value is listed as -1.44%. Under `COc1ccc(N(CC(=O)N2CCc3ccccc3C2)S(=O)(=O)c2ccccc2)cc1OC` stands -7.69%; under `COc1ccc(Cl)cc1NC(=O)CC1NCCNC1=O` (stereo not drawn), 0.843%; under `O=C(CCC(=O)Nc1cccc(C(F)(F)F)c1)Nc1cccc(C(F)(F)F)c1`, -5.13%. The result for `COc1ccc(C2C(C(=O)c3cc4ccccc4o3)=C(O)C(=O)N2CCN2CCOCC2)cc1OC` (stereo not drawn) reads -3.13%.

Turning to `O=[N+]([O-])c1ccc(N2CCN(Cc3cccc(Cl)c3)CC2)cc1`, the “% Inhibition @ 10 uM” value was -1.93%.

Consider `O=[N+]([O-])c1cccc(CN2CCN(c3ccc(F)cc3)CC2)c1`, for which the “% Inhibition @ 10 uM” value is given as -0.294%. Under `Cc1cc(C(=O)O)c2c(C)nn(-c3cccc(Cl)c3C)c2n1` stands 9.5%; under `O=C1NC(=O)N(c2cccc(Cl)c2)C(=O)/C1=C\Nc1ccccn1`, -0.366%; under `CCCCS(=O)C1CCCCC1OC(=O)c1ccccc1` (stereo not drawn), -3.48%. Consider `O=C(O)CCC(=O)Nc1sc2c(c1C(=O)Nc1ccccc1)CCCC2`, for which the “% Inhibition @ 10 uM” value is recorded as -4.76%.

Consider `CC1=C(C(=O)Nc2ccccc2)C(c2ccc(C)o2)n2c(s/c(=C/c3cn(C)nc3C)c2=O)=N1` (stereo not drawn), for which the “% Inhibition @ 10 uM” value is 5.24%. Consider `Cc1ccc(Nc2nc(N)nc(CSc3nccn3C)n2)c(C)c1`, for which the “% Inhibition @ 10 uM” value came out at 1.35%. Under `N#CC1=C(N)OC2=C(C(=O)CCC2)C1c1cccc2ccccc12` (stereo not drawn) stands -4.94%; under `CCOc1nc(NC(=O)NC(=O)c2ccccc2)nc(-c2ccccc2)n1`, -2.5%; under `O=C(Nc1cccc(N2C(=O)C3C4C=CC(C4)C3C2=O)c1)c1ccccc1` (stereo not drawn), 0.812%. Under `O=C(NCc1ccc2c(c1)OCO2)c1ccc2c(c1)C(=O)N(Cc1cccnc1)C2=O` stands -5.54%; under `Cc1cc(C(=O)NCCc2ccccc2)c2c(C)nn(-c3ccccc3Cl)c2n1`, 3.75%. Consider `CCC(C)c1ccc(OCCCN2CCN(C)CC2)cc1` (stereo not drawn), for which the “% Inhibition @ 10 uM” value is 3.25%. The result for `COc1ccc(OC)c(N(CC(=O)NC2CC2)S(=O)(=O)c2ccc(C)cc2)c1` reads -2.19%; that for `CC12CCC3c4cc(Br)c(O)cc4CCC3C1CCC2O` (stereo not drawn), -0.357%. Under `CCCc1cc(O)nc(SCC(=O)Nc2ccc(OC)cc2)n1` stands -4.12%; under `CCn1ncc(Br)c1C(=O)NCc1ccccc1OC`, 17.5%.

Consider `Cc1ccc(C(=O)Nc2ccccc2N2CCCC2)cc1`, for which the “% Inhibition @ 10 uM” value is 2.4%.

On to `COc1ccc(-c2nnc(S)n2-c2ccccc2)cc1`, for which the “% Inhibition @ 10 uM” value is listed as 4.35%. With `COC(=O)c1cc(S(=O)(=O)NCC2CCN(Cc3ccc(Cl)cc3)CC2)c[nH]1`, the “% Inhibition @ 10 uM” value turned out to be 5.88%.

As to `COc1ccc(C(=O)CCc2nc3ccccc3s2)cc1`, the “% Inhibition @ 10 uM” value is 1.62%.

With `Cc1cc(=O)n2nc(N3CCCC3C(=O)NCc3ccc(OC(C)C)cc3)sc2n1` (stereo not drawn), the “% Inhibition @ 10 uM” value stood at 4.55%.

On to `Cc1ccc(S(=O)(=O)N2CCCC2CO)cc1` (stereo not drawn), for which the “% Inhibition @ 10 uM” value is reported as -1.6%. For the compound `CCN(CC)C(=O)C1=CC(c2ccc(C)cc2)=NS(=O)(=O)N1C`, the “% Inhibition @ 10 uM” value stood at 2.11%.

`O=C(NC1CCCCC1)[C@H](Cc1ccccc1)N1Cc2ccccc2C1=O`: the “% Inhibition @ 10 uM” value was 2.93%. Take `O=C(NC1CCCCC1)C12CC3CC(C1)CC(n1cncn1)(C3)C2`: the “% Inhibition @ 10 uM” value is listed as -11.9%.

On to `COc1ccccc1/C=C/C1=NN(c2cccc(F)c2)C(c2ccccc2OC)C1` (stereo not drawn), for which the “% Inhibition @ 10 uM” value is -4.61%. The result for `Cc1ccc(/C(O)=C/c2nc3nonc3nc2O)cc1C` reads 0.738%; that for `COc1cccc(/C=C2\N=C(c3ccc(Br)cc3)OC2=O)c1OC`, 1.64%; that for `CSc1nc(-c2ccc(Cl)cc2)nn1S(=O)(=O)c1ccc(NC(C)=O)cc1`, 9.57%. Under `CCC(C)N1C(=O)S/C(=C/c2cc(OC)c3c(c2)OCO3)C1=O` (stereo not drawn) stands 2.93%. On to `COC(=O)C1=CN(C(C)C)C=C(C(=O)OC)C1c1cccc(O)c1`, for which the “% Inhibition @ 10 uM” value is given as -8.88%. The result for `CC1CCCC(NC(=O)CN(C)S(=O)(=O)c2cccc3cccnc23)C1C` (stereo not drawn) reads -4.21%. As for `CCOC(=O)C1=NNC2C(=O)N(Cc3ccccc3)C(=O)C12` (stereo not drawn), the “% Inhibition @ 10 uM” value stood at 1.54%.

As for `CCCC(=O)c1ccc(N2CCN(C(=O)CC)CC2)c(F)c1`, the “% Inhibition @ 10 uM” value was -2.83%. Consider `COc1ccccc1Cc1nnc(C(=O)NCc2ccc3c(c2)OCO3)o1`, for which the “% Inhibition @ 10 uM” value came out at 6.13%. For `O=C1CC(N2CCN(c3ccc4c(c3)OCO4)CC2)C(=O)N1c1ccc(Br)cc1` (stereo not drawn), the “% Inhibition @ 10 uM” value came to 2.87%.
